These are yes or no findings as the source states them, for the method shown. Binding seen in cells or lysates may run through a third protein. Some entries that bind do so weakly or less than the wild type. For part of these data: Sequences can lack the tags named with a protein.

Sequences of proteins named here, by UniProt entry; tags and fusion partners are left off. A change or cut given only in a name is not applied to a line headed by its entry. A line that says so, or that is headed by a name, gives the form on record, which may keep a tag or linker. Residues count along the entry.
UniProt P43116: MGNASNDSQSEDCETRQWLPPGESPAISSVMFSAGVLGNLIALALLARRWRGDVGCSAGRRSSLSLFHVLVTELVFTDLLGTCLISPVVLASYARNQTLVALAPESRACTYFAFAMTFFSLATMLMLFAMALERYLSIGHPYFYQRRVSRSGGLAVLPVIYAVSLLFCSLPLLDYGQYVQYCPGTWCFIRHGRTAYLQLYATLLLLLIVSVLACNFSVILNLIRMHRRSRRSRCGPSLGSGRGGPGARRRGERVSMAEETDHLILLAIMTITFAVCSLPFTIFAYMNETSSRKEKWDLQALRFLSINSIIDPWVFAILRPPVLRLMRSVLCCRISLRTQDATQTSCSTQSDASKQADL
UniProt Q13258: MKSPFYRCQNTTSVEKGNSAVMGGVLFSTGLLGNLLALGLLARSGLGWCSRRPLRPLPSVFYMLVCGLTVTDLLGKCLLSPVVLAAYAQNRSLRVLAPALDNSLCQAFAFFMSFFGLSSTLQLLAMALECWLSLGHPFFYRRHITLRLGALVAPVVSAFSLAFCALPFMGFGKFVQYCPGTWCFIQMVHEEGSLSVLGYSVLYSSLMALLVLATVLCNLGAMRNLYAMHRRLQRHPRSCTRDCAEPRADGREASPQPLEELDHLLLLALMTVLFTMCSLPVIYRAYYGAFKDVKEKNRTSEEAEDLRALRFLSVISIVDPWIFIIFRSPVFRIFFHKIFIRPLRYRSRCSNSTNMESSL
UniProt P43119: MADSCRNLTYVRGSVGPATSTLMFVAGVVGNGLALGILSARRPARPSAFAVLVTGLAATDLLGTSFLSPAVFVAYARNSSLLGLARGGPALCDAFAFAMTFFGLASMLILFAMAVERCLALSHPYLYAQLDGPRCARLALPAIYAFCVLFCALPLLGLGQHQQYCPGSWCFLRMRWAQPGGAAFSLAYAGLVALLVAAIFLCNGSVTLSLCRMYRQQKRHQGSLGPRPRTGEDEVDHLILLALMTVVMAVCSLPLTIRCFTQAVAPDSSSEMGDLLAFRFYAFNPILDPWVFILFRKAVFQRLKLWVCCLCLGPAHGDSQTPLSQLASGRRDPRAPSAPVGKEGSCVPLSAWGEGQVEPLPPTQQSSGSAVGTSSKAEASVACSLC
UniProt Q62053: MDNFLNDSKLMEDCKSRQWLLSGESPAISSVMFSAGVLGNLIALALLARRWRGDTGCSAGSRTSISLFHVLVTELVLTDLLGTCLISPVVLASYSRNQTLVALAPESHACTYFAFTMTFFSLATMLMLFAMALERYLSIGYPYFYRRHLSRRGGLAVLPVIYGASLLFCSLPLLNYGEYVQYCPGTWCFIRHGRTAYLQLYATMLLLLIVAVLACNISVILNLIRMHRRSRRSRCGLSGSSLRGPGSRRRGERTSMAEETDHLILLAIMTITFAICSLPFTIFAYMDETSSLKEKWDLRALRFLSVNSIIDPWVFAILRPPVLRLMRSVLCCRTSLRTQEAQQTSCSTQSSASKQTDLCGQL
C-terminally FLAG/Myc-tagged GPRC5B (G Protein-Coupled Receptor Class C Group 5 Member B), human (Q9NZH0, residues 29-403): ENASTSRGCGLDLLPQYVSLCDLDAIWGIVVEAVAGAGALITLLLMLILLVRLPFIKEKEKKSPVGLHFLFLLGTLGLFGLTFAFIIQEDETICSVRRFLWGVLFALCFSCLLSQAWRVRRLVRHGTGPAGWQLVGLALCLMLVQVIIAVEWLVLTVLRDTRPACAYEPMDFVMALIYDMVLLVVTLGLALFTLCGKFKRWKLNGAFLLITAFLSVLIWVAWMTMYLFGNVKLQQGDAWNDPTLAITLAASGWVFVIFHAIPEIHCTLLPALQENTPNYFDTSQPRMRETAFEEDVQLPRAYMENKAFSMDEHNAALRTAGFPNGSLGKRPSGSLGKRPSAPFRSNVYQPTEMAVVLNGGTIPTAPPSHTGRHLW
GPRC5B mutant set 2 (F111A), human, C-Myc-FLAG (Q9NZH0-1, form named): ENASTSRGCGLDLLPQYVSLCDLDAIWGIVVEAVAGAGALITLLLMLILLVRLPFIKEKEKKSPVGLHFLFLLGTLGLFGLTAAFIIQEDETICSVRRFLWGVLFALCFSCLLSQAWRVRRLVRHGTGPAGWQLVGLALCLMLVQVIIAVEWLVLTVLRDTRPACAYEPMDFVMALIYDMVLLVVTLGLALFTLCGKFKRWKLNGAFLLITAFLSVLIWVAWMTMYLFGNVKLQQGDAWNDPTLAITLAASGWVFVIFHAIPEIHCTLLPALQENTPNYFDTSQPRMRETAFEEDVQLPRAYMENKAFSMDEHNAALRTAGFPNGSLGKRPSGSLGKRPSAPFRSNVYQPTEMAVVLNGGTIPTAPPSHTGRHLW
GPRC5B mutant set 3 (Q116A, D118A, L128A), human, C-Myc-FLAG (Q9NZH0-1, form named): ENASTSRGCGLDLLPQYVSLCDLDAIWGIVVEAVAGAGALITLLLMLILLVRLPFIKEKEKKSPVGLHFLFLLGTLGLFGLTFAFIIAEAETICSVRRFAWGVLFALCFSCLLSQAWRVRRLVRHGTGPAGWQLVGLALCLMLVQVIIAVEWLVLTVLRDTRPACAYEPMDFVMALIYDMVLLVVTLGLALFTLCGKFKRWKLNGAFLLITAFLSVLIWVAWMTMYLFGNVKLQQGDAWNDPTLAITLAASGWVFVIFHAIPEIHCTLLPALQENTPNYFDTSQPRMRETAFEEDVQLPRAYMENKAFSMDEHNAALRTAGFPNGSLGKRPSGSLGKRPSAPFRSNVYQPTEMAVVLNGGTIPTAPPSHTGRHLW
UniProt Q923Z0, residues 29-410: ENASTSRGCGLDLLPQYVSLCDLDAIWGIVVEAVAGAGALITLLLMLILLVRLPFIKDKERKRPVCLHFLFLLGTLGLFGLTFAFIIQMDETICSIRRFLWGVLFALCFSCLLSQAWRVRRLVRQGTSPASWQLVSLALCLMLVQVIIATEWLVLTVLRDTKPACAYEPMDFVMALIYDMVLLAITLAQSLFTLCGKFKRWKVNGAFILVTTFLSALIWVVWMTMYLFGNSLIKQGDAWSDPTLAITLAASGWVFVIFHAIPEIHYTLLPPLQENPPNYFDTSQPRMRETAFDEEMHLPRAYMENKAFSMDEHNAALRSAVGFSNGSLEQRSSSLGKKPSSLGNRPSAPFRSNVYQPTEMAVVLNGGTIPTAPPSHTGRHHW
UniProt P43088: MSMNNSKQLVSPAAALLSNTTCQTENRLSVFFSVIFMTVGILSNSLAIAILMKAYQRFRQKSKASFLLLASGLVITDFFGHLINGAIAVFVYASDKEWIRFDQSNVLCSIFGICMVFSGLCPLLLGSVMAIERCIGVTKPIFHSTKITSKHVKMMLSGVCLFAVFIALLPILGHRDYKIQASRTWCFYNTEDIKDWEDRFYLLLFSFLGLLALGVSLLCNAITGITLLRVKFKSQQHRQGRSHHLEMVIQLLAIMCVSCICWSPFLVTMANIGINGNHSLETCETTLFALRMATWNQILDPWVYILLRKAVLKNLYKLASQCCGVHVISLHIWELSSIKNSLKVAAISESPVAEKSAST
UniProt P51681: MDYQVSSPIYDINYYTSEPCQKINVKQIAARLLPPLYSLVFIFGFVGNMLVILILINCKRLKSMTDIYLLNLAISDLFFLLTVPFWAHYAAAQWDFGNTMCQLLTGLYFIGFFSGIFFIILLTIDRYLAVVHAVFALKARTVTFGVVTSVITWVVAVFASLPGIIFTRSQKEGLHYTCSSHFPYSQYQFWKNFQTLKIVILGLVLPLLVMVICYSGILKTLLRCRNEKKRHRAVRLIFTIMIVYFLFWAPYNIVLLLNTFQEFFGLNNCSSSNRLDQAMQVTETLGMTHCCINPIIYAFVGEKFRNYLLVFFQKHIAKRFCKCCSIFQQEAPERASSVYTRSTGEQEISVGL
UniProt P35408: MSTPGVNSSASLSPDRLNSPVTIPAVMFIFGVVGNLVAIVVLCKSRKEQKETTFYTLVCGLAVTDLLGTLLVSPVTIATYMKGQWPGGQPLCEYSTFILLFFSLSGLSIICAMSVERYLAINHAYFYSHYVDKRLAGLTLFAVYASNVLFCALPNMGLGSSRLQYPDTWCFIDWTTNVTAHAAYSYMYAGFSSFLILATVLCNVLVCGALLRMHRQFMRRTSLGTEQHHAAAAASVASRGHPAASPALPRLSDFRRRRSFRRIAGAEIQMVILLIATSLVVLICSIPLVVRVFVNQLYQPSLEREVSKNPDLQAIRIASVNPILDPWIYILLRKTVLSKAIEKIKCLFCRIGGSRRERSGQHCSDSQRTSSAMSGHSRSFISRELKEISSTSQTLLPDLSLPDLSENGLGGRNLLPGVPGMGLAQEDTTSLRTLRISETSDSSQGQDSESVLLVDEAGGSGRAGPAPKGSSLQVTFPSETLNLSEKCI
UniProt P21731: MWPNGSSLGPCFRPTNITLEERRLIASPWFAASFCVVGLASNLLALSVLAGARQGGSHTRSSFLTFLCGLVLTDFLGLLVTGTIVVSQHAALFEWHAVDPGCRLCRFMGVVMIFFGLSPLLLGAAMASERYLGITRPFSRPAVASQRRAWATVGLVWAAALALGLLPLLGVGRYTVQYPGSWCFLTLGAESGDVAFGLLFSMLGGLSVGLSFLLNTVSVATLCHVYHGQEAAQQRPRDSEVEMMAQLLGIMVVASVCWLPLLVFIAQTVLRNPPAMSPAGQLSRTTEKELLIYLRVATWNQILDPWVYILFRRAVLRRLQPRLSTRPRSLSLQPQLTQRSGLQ

The target in assay [1] is T1, N-terminally HA-tagged prostaglandin E2 receptor EP1, human (human) (UniProt P34995).
T1 sequence: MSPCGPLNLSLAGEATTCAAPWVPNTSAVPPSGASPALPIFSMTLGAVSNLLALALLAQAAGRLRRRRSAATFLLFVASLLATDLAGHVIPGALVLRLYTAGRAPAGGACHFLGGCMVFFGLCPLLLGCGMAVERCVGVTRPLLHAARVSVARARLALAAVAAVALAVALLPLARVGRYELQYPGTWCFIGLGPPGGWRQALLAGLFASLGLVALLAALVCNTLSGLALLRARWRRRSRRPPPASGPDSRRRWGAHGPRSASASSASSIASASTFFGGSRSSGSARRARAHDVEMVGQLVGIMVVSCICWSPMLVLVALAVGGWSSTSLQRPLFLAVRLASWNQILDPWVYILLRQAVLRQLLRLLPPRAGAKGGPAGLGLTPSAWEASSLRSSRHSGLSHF
Briefly: co-IP; HEK cells co-transfected with FLAG/Myc-tagged GPRC5B (wild type or mutant) and HA-tagged receptors; RIPA lysate; precipitation with anti-HA magnetic beads, 4 °C, 2 h; blot for HA and FLAG.

Assay [2] concerns the target N-terminally HA-tagged prostaglandin E receptor 2 (EP2), human (human) (UniProt P43116). The assay is described as above.
Assay [3] has as its target N-terminally HA-tagged PGD2 receptor DP1, human (human) (UniProt Q13258). The description is as above.
Assay [4] concerns the target N-terminally HA-tagged prostacyclin receptor IP, human (human) (UniProt P43119). Described as above.
The target in assay [5] is EP2 receptor C-terminally tagged with mTurquoise2, human (human) (UniProt P43116). Put plainly: FRET or BRET; initial FRET (emission ratio mCit/mTq2) in single transiently transfected HEK293T cells; EP2-mTurq2 donor, mCitrine-tagged receptors as acceptors.
Assay [6] deals with EP2 receptor, endogenous in mouse resident peritoneal macrophages (mouse (endogenous in RPM)) (UniProt Q62053). Briefly: co-IP; endogenous EP2 precipitated from RIPA lysate of freshly isolated mouse RPM with anti-EP2 (Abcam ab167171) overnight at 4 °C and A/G-Sepharose beads; IgG and GPRC5B-KO as negative controls.
For assay [7], the target named is C-terminally FLAG/Myc-tagged GPRC5B (G Protein-Coupled Receptor Class C Group 5 Member B), human (human) (UniProt Q9NZH0). Briefly: co-IP; HEK cells co-transfected with GPRC5B-FLAG/Myc and HA-tagged receptors; RIPA lysate; precipitation with anti-FLAG magnetic beads, 4 °C, 2 h; blot for HA and FLAG.

Regarding “C-terminally FLAG/Myc-tagged GPRC5B (G Protein-Coupled Receptor Class C Group 5 Member B), human (from UniProt Q9NZH0-1 29-403)”, the binding entry in assay [1], in assay [2], in assay [3] and in assay [4] was “binds” each time.

With “GPRC5B C-terminally tagged with mCitrine, human (from UniProt Q9NZH0-1 29-403) (receptor)”, the binding entry in assay [5] is listed as “binds”.

Regarding “GPRC5B mutant set 2 (F111A), human, C-Myc-FLAG (from UniProt Q9NZH0-1 29-403) (receptor)”, the binding entry in assay [2] is reported as “binds”.

As for “GPRC5B mutant set 3 (Q116A, D118A, L128A), human, C-Myc-FLAG (from UniProt Q9NZH0-1 29-403) (receptor)”, the binding result in assay [2] is on record as “binds”.

For the molecule “GPRC5B, endogenous in mouse resident peritoneal macrophages (from UniProt Q923Z0 29-410) (receptor)”, in assay [6], the binding entry is given as “binds”.

As to “N-terminally HA-tagged PGD2 receptor DP1, human (from UniProt Q13258-1 1-359)”, the binding entry in assay [7] is “binds”.

In the case of “N-terminally HA-tagged PGF2a receptor FP, human (from UniProt P43088 1-359)”, in assay [7], the binding result was “no binding”.

Regarding “N-terminally HA-tagged chemokine receptor CCR5, human (from UniProt P51681 1-352)”, the binding result in assay [7] is “no binding”.

For the molecule “N-terminally HA-tagged prostacyclin receptor IP, human (from UniProt P43119 1-386)”, in assay [7], the binding entry is listed as “binds”.

On to “N-terminally HA-tagged prostaglandin E2 receptor EP4, human (from UniProt P35408 1-488)”, for which the binding entry in assay [7] is given as “no binding”.

Regarding “N-terminally HA-tagged prostaglandin E receptor 2 (EP2), human (from UniProt P43116 1-358)”, the binding entry in assay [7] is “binds”.

For the molecule “N-terminally HA-tagged thromboxane A2 receptor TP, human (from UniProt P21731 1-343)”, the binding entry in assay [7] is given as “no binding”.

B1: N-terminally HA-tagged prostaglandin E2 receptor EP3, human (receptor, UniProt P43115 1-390)
chain: MKETRGYGGDAPFCTRLNHSYTGMWAPERSAEARGNLTRPPGSGEDCGSVSVAFPITMLLTGFVGNALAMLLVSRSYRRRESKRKKSFLLCIGWLALTDLVGQLLTTPVVIVVYLSKQRWEHIDPSGRLCTFFGLTMTVFGLSSLFIASAMAVERALAIRAPHWYASHMKTRATRAVLLGVWLAVLAFALLPVLGVGQYTVQWPGTWCFISTGRGGNGTSSSHNWGNLFFASAFAFLGLLALTVTFSCNLATIKALVSRCRAKATASQSSAQWGRITTETAIQLMGIMCVLSVCWSPLLIMMLKMIFNQTSVEHCKTHTEKQKECNFFLIAVRLASLNQILDPWVYLLLRKILLRKFCQIRYHTNNYASSSTSLPCQCSSTLMWSDHLER
B1: in assay [7], the binding result is reported as “no binding”.

B2: N-terminally HA-tagged PGD2 receptor DP2, human (receptor, UniProt Q9Y5Y4 1-395)
chain: MSANATLKPLCPILEQMSRLQSHSNTSIRYIDHAAVLLHGLASLLGLVENGVILFVVGCRMRQTVVTTWVLHLALSDLLASASLPFFTYFLAVGHSWELGTTFCKLHSSIFFLNMFASGFLLSAISLDRCLQVVRPVWAQNHRTVAAAHKVCLVLWALAVLNTVPYFVFRDTISRLDGRIMCYYNVLLLNPGPDRDATCNSRQVALAVSKFLLAFLVPLAIIASSHAAVSLRLQHRGRRRPGRFVRLVAAVVAAFALCWGPYHVFSLLEARAHANPGLRPLVWRGLPFVTSLAFFNSVANPVLYVLTCPDMLRKLRRSLRTVLESVLVDDSELGGAGSSRRRRTSSTARSASPLALCSRPEEPRGPARLLGWLLGSCAASPQTGPLNRALSSTSS
Turning to B2, the binding entry in assay [7] is “no binding”.

B3: N-terminally HA-tagged prostaglandin E2 receptor EP1, human (receptor, UniProt P34995 1-402)
chain: T1 sequence
B3: in assay [7], the binding result is reported as “binds”.

These data come from paper PMC11805951.
